# Measurements reported in PubChem BioAssay AID1347417 (National Center for Advancing Translational Sciences (NCATS), 2020).
# Among all 120,000 compounds or so, about 5,300 (4.4%) were called active. This list was built around the results that the source calls inconclusive (neither active nor inactive); the mix of calls is not that of the screen. Calls come from the whole dose curve; as a rule, active = well fitted inhibition curve with a large enough effect; inconclusive = small, poorly fitted or top-dose-only effect; inactive = no such curve, though single readings can be large or run the other way. Potencies of inconclusive entries are doubtful fits and often do not repeat.
# Assay: qHTS Primary assay for Inhibitors of Plasmodium falciparum Dd2 growth in vitro; note: nearly all actives have a fitted effect of over 65% in size
# Conditions: P. falciparum Dd2 growth, SYBR Green, 72 h; series mostly up to 28.9 µM
# Procedure, shortened: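 Readout: SYBR Green fluorescence, 485 nm excitation, 535 nm emission, after ~16 h lysis at 37C. Before that, Dd2-infected red cells (2.5% hematocrit) grew 72 h with compound, 29 uM top final concentration.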
# Potency is the fitted concentration of half-maximal effect; tags give direction and shape of the fitted curve.
row,Compound,Potency
1,Cc1cc(CNC(=O)c2cc(-c3ccc(CO)cc3)cc3c2OCCN3C)no1,"inconclusive: 14.1 µM [inhibitor, single point]"
2,COc1ccccc1CC(=O)N1CCc2c(nc3cc[nH]n3c2=O)C1,"inconclusive: 7.94 µM [inhibitor, single point]"
3,Cc1nc(-c2ccc(F)cc2)n(CC(=O)Nc2cccc(Cl)c2)c(=O)c1CCO,"inconclusive: 1.78 µM [inhibitor, full curve]"
4,O=C(NCCc1cccs1)c1cccc2c1CCN2C(=O)Nc1ccccc1,"inconclusive: 3.98 µM [inhibitor, partial curve, poor fit]"
5,Cc1nn2c(c1-c1ccccc1Oc1ccccc1)N(Cc1ccc(C(=O)O)cc1)CCC2,"inconclusive: 0.398 µM [inhibitor, partial curve, poor fit]"
6,COc1ccc2c(c1)CCCN2C1CNC1,"inconclusive: 15.8 µM [inhibitor, partial curve]"
7,Cc1ccc(-c2cc3c(n2-c2ccc(F)cc2)CC(C)(C)CC3=O)cc1,"inconclusive: 10 µM [inhibitor, partial curve]"
8,Cc1ccccc1OCc1nnc(SCc2cc(=O)c3ccc(C)c(C)c3[nH]2)n1C,"inconclusive: 11.2 µM [inhibitor, single point]"
9,CCCN1CCCC2(CCN(S(=O)(=O)c3cccc(OC)c3)C2)C1=O (stereo not given),"inconclusive: 3.98 µM [inhibitor, single point]"
10,CN1CCC([C@@H]2CN(S(=O)(=O)c3cccnc3)C[C@H]2C(N)=O)CC1,inactive
11,CC(C)(C)OC(=O)N1CCC(c2c(C(=O)N3CCC(c4ccccc4)C3)cnn2-c2ccc(Cl)cc2)CC1 (stereo not given),active: 4.47 µM
12,CCOC(=O)c1c(C)oc2ncnc(N3CCN(c4ccccc4)CC3)c12,"inconclusive: 11.2 µM [inhibitor, single point]"
13,CC(C)NC(=O)OC[C@H]1C[C@@H]2CCN1C[C@@H]2c1cc(C2CCCC2)nc(-c2ccncc2)n1,"inconclusive: 2 µM [inhibitor, full curve, poor fit]"
14,CC(C)n1cc(-c2cc(C(=O)N(C)Cc3cccnc3)c3cc(F)ccc3n2)cn1,inactive
15,O=C1NC(=NC2CCCCC2)C2(CCN(Cc3ccc(F)cc3)C2)N1c1cccnc1 (stereo not given),"inconclusive: 10 µM [inhibitor, single point]"
16,COc1ccc(C(=O)N2CC3CC(C2)[C@H]2CCCC(=O)N2C3)cc1F (stereo not given in full),inactive
17,CN(C(=O)c1c2c(nc3ccccc13)C(=O)N(C1CCCCC1)C2)c1ccc(F)cc1,"inconclusive: 10 µM [inhibitor, single point]"
18,CCC(C(=O)NCc1cccc(Br)c1)n1nc(C)c2c(C)n(-c3ccccc3)nc2c1=O (stereo not given),"inconclusive: 17.8 µM [inhibitor, single point]"
19,O=C(Nc1ccccc1)c1cnc2n1CCN(Cc1cccc(O)c1)CC2,inactive
20,CC(=O)N1CCN(c2ncnc3c2CN(c2ccccc2F)C(=O)CN3C)CC1,inactive

row,Compound,Potency
1,CC(=O)Nc1ccc(NC(=O)c2cnn(-c3ccccc3)c2C2CCN(C(=O)OC(C)(C)C)CC2)cc1,"inconclusive: 5.62 µM [inhibitor, partial curve, poor fit]"
2,CCOC(=O)C1(Cc2ccc(F)cc2)CCCN(C(=O)c2ccc(N(C)C)cc2)C1 (stereo not given),"inconclusive: 17.8 µM [inhibitor, single point]"
3,CCOC(=O)c1cccc(NC(=O)CSc2nc3cc4ccccc4cc3[nH]2)c1,"inconclusive: 20 µM [inhibitor, partial curve, poor fit]"
4,C#CCNC(=O)c1nc(-c2ccccc2)c2ccccn12,"inconclusive: 11.2 µM [inhibitor, single point]"
5,CC(C)CCN1CCOc2cc(C(=O)Nc3cccnc3)ccc2C1,inactive
6,COc1ccc(Nc2nc3ccccc3nc2NS(=O)(=O)c2ccc(Cl)cc2)cc1OC,"inconclusive: 11.2 µM [inhibitor, single point]"
7,CC1=C[C@@H](CN)[C@H](C(C)C)C[C@H]1Cc1nc2ccc(Cl)cc2[nH]1,active: 11.2 µM
8,Cc1cccc(NC(=O)CSc2nc3ccccc3c3nc(CCc4c(C)n[nH]c4C)nn23)c1,"inconclusive: 10 µM [inhibitor, single point]"
9,COc1ccc(Cl)cc1C(=O)N1CCC(Oc2ncccc2C(=O)N2CCCCC2)C1 (stereo not given),"inconclusive: 8.91 µM [inhibitor, partial curve, poor fit]"
10,CCN(CC)c1ccc(NC(=O)CN2CCN(S(=O)(=O)c3cc(Cl)ccc3OC)CC2)cc1,"inconclusive: 12.6 µM [inhibitor, single point]"
11,COc1ccc(NC(=O)CSc2nc(-c3ccccc3)[nH]c2-c2ccccc2)cc1OC,"inconclusive: 12.6 µM [inhibitor, partial curve, poor fit]"
12,CC(C)NC(=O)N1CCN(C(=O)C2CCNCC2)[C@@H](C(=O)N[C@H](Cc2c[nH]c3ccccc23)C(N)=O)C1,inactive
13,CC(C)CN1CCC(O)(c2csc(CN(C)Cc3cccnc3)n2)CC1,inactive
14,Cc1c(Cl)cccc1-n1ncc(C(=O)N2CCC(C)CC2)c1C1CCN(C(=O)OC(C)(C)C)CC1,active: 11.2 µM
15,CCc1cccc2c(C(CC(=O)NCCc3ccccc3)c3cccc4c3OCO4)c[nH]c12 (stereo not given),inactive
16,Cc1cc(OC2CN(Cc3ccc(C#N)cc3)C2)ccc1F,"inconclusive: 22.4 µM [inhibitor, single point]"
17,Cc1noc(C)c1CCCNC(=O)c1ccc(N2CCC[C@H]2CO)nc1,inactive
18,Cc1ccc(NC(=O)C2CCN(S(=O)(=O)c3ccc4c(c3)CCCN4C(=O)C3CCC3)CC2)cc1,"inconclusive: 7.94 µM [inhibitor, partial curve, poor fit]"
19,CNC(=O)[C@H]1C[C@H](Oc2ccccc2)CN1C(=O)CCc1nc2ccccc2[nH]1,"inconclusive: 0.794 µM [inhibitor, full curve, poor fit]"
20,Cc1ccccc1C(=O)N(C)Cc1ccc(-c2ccccc2)cc1,"inconclusive: 25.1 µM [inhibitor, single point]"
